Results: ChEMBL document CHEMBL1201862, “PubChem BioAssay data set” (2004)
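Where inhibition never reached the appropriate level, the endpoint shown equals the highest concentration tested. Otherwise, values were interpolated linearly from a five-concentration, 48-hour dose response in 96-well plates. The concentration for 50% growth inhibition is given as GI50.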 Calls of active or inactive are those of the source. Cut-off read from the data, not from the text of the source: active = GI50 up to about 1.1 µM and inactive = higher.

Each compound was assayed on NCI-H322M (assay: inhibition of tumour cell growth, NCI panel, 48 h).
With `O=C1CSC(/C(=C\c2ccc(Cl)cc2)c2nc3ccccc3[nH]2)=N1` the GI50 was inactive: 5.2 µM. In the case of `Cc1onc(-c2c(F)cccc2Cl)c1C(=O)N[C@@H]1C(=O)N2[C@@H]1SC(C)(C)[C@@H]2C(=O)O`, the GI50 is reported as inactive: > 100 µM. For `C=C1CC(OC)(C(O)C(=O)N[C@H]2OCO[C@H]3C2O[C@H](C[C@@H](CO)OC)C(C)(C)C3OC)O[C@H](C)[C@@H]1C` (some centres not stated), the GI50 was active: < 0.00931 µM. In the case of `CCOC(=O)C(NC(=O)c1ccccc1)(N1CCN(c2cc3c(cc2F)c(=O)c(C(=O)O)cn3CC)CC1)C(F)(F)F` (configuration not stated), the GI50 is reported as inactive: 50.6 µM. In the case of `C/C=C/C(O)P(=O)(OC)OC` (configuration not stated), the GI50 is reported as active: 0.601 µM. For `Cc1c(O)ccc2c(O)c(NC(=O)c3ccc4c(c3)CCC(C)(C)O4)c(=O)oc12` [CYCLONOVOBIOCIC ACID], the GI50 was inactive: > 100 µM. `O=C[C@@H](CO)O[C@H](C=O)n1cnc2c(=O)nc[nH]c21` was tested, and the GI50 was inactive: 403 µM. With `CCOC1=NC(=O)CC(c2ccccc2)S1` (configuration not stated) the GI50 was inactive: > 100 µM. `S=C1c2ccccc2N=C(NC2CCCC2)C2CSCN12` (configuration not stated) was tested, and the GI50 was inactive: > 100 µM. In the case of `O=C(Cn1c2c(c3ccccc31)CCCC2)N1CCCCC1`, the GI50 is reported as inactive: > 100 µM. With `Clc1ccccc1CN1COc2c(ccc3cccnc23)C1` the GI50 was inactive: 4.24 µM. With `O=C(NCCCOC(=O)CCCCCCCCC(=O)OCCCNC(=O)NC(=O)c1c[nH]c(=O)[nH]c1=O)NC(=O)c1c[nH]c(=O)[nH]c1=O` the GI50 was inactive: > 100 µM. With `C=C1C(=O)O[C@H]2C[C@@H](C)[C@@H]3CC(=O)OC[C@@]3(C)CC12` (some centres not stated) the GI50 was inactive: 21.5 µM. `CCOC(=O)c1ccc(-c2cc(C)no2)[nH]1` was tested, and the GI50 was inactive: > 100 µM. In the case of `CCC1=CC(OCc2ccccc2)C(CCN(Cc2ccccc2)C(=O)OCc2ccccc2)C1` (configuration not stated), the GI50 is reported as inactive: 19.4 µM. With `CN(C(=O)Nc1ccc(Cl)c(Cl)c1)C1CCCC[C@@H]1N1CCCC1` (some centres not stated) the GI50 was inactive: 81.7 µM. In the case of `NS(=O)(=O)c1ccc(/C=C/c2cccc(O)c2)cc1`, the GI50 is reported as inactive: > 100 µM. With `COC(=O)CSSCc1ccc([N+](=O)[O-])cc1` the GI50 was inactive: 16.2 µM. `Cc1c(C(=O)O)sc2nc[nH]c(=O)c12` was tested, and the GI50 was inactive: > 100 µM. For `O=C(O)c1ccc(/C=N\N(CCO)C2=NCCN2)cc1`, the GI50 was inactive: > 100 µM. For `ClCc1ccc2ccc3ccc(CCl)nc3c2n1`, the GI50 was inactive: 4.32 µM. For `CCN(CC)C(=S)N/N=C/c1cc([N+](=O)[O-])ccc1O`, the GI50 was inactive: 7.19 µM. With `O=C1Nc2cccc3cc(NCC(O)CCl)cc1c23` (configuration not stated) the GI50 was inactive: 83.4 µM. In the case of `C=CCOC1OC(CS(=O)(=O)O)C(OC(C)=O)C(OC(C)=O)C1OC(C)=O` (configuration not stated), the GI50 is reported as inactive: > 100 µM. For `COc1cc(/C=C/C(=O)N[C@@H]2C(=O)N3[C@@H]2SC(C)(C)[C@@H]3C(=O)O)ccc1O`, the GI50 was inactive: > 100 µM. In the case of `COC(=O)c1cc(C)n2c1CS[C@@H]2c1ccccc1`, the GI50 is reported as inactive: 51.6 µM. `N#CC(C(=O)/C(=N/NC(=O)c1ccccc1O)C(C#N)c1ccccc1)c1ccccc1` (configuration not stated) was tested, and the GI50 was inactive: > 100 µM. For `C[C@@]1(O)CC[C@]2(C)C3CCCC3[C@H]12` (some centres not stated), the GI50 was inactive: > 100 µM. In the case of `COc1cc(/C=C2\CC/C(=C\c3cc(OC)c(O)c(OC)c3)C2=O)cc(OC)c1O`, the GI50 is reported as inactive: 2.82 µM. For `c1ccc(CCn2cncn2)cc1`, the GI50 was inactive: > 100 µM. For `C[C@]12CC[C@H](O)CC1=CC[C@@H]1[C@@H]2CC[C@]2(C)C(=N/N)/C(=N\O)C[C@@H]12`, the GI50 was inactive: > 100 µM. In the case of `COc1cc2c(oc(=O)c3cc4ccoc4c(OC)c32)c2cccc(O)c12`, the GI50 is reported as inactive: > 100 µM. `COc1cc(C(c2ccc3c(c2)OCO3)C2SCCCS2)cc(OC)c1OC` (configuration not stated) was tested, and the GI50 was inactive: 3.47 µM. In the case of `CCCCc1c2c(nc3c1CCCC3O)/C(=C/c1ccccc1)CCC2` (configuration not stated), the GI50 is reported as inactive: 43.9 µM. With `CN(C)S(=O)(=O)c1ccc(Nc2ccc(O)c3c2C(=O)c2c([N+](=O)[O-])ccc(O)c2C3=O)cc1` the GI50 was inactive: > 100 µM. In the case of `O=C1C[C@H](CCC(=O)OCc2ccccc2)NC(=O)C[C@H](CCC(=O)OCc2ccccc2)NC(=O)C[C@H](CCC(=O)OCc2ccccc2)N1`, the GI50 is reported as inactive: > 100 µM. With `O=C(CCc1ccccc1)n1cccc1CO` the GI50 was inactive: > 100 µM. With `CC1=C(C(=O)Nc2cccc3c2C(=O)NC3=O)CC(C(=O)Nc2cccc3c2C(=O)NC3=O)=C(C)N1` the GI50 was inactive: > 100 µM. With `C1CCOC2(CCC3(CC2)OCCCCO3)OC1` the GI50 was inactive: > 100 µM. With `CC(=O)OC1CC2OC(Cc3ccccc32)O1` (configuration not stated) the GI50 was inactive: > 100 µM. With `c1ccc2nc(-c3ccc4c(c3)OCO4)ccc2c1` the GI50 was inactive: 55.8 µM. For `Nc1nnc(N)n1NC(=O)C(=O)Nc1ccc([N+](=O)[O-])cc1`, the GI50 was inactive: > 100 µM. With `C=CCC12CCC(=O)[C@@]1(C)CC=C(O)C2=O` (some centres not stated) the GI50 was inactive: > 100 µM. For `Oc1ccc2ccccc2c1C(c1ccc(Cl)cc1)c1c(O)ccc2ccccc12`, the GI50 was inactive: 2.39 µM. For `CCn1c(-c2cc(OC)cc(OC)c2)nc2c1C(=O)c1ccccc1C2=O`, the GI50 was inactive: > 100 µM. With `O=C(N/C(=C\c1ccc([N+](=O)[O-])cc1)c1nc2c(O)nc(S)nc2[nH]1)c1ccccc1` the GI50 was inactive: > 100 µM. With `Cc1c(C(=O)/C=C/c2ccco2)[n+]([O-])c2ccccc2[n+]1[O-]` the GI50 was inactive: > 100 µM. In the case of `CC(=O)NNc1nc(C)c(C(/C=C/c2cccc([N+](=O)[O-])c2)=N/NC(=S)NN)s1`, the GI50 is reported as inactive: > 100 µM. `O=S(=O)(c1ccc2ccccc2c1)N1CCN(S(=O)(=O)c2ccc3ccccc3c2)CC1` was tested, and the GI50 was inactive: > 100 µM. In the case of `O=C(Nc1cc(Cl)c(Cl)cc1Cl)C(=O)C(C(=O)c1ccccc1)C1OC(=O)c2ccccc21` (configuration not stated), the GI50 is reported as inactive: > 100 µM. In the case of `O=[N+]([O-])c1ccc2c(c1)c1nn2CCCCOc2nn(c3ccc([N+](=O)[O-])cc23)CCCCO1`, the GI50 is reported as inactive: > 100 µM. With `CC[C@H]1C=CCC[C@@]2(C[C@@H]3CC[C@@H]4[C@H](C(=O)OCCCCCCCCCCCCCCCC(=O)N(CCCN)C[C@@H](O)CCN)[C@]5(CCC[C@@H](C)O5)NC(=[N+]34)N2)O1` the GI50 was active: 0.826 µM. With `CCCCCCc1ccc(C(=O)NO)cc1` the GI50 was inactive: 30.6 µM. With `CCn1c(SC(C)C(=O)c2c(C)n(C)n(-c3ccccc3)c2=O)nc2ccccc2c1=O` (configuration not stated) the GI50 was inactive: > 100 µM. In the case of `CC1(OCc2ccccc2)C(=O)N2C1N(C(=O)OCc1ccccc1)CC2(C)C` (configuration not stated), the GI50 is reported as inactive: > 100 µM. `Cn1ncc2c(Nc3cccc(Cl)c3)nc(Nc3cccc(Cl)c3)nc21` was tested, and the GI50 was inactive: 12.9 µM. With `COc1cc(C(c2cc(OC)c(OC)c(OC)c2)N2C(=O)CCC2C(=O)O)cc(OC)c1OC` (configuration not stated) the GI50 was inactive: > 100 µM. With `COC1=CC(=O)c2c(ccc3ncnc(N)c23)C1=O` the GI50 was inactive: 3.52 µM. With `CC(=O)C1=C(C)N(c2ccc(C)cc2)C2(O)C3=C(C(=O)c4ccccc4C3=O)C(O)=CC12Cl` (configuration not stated) the GI50 was inactive: 38.4 µM. In the case of `Fc1ccc(C(OCCN2CCN(CCCCl)CC2)c2ccc(F)cc2)cc1`, the GI50 is reported as inactive: 29.9 µM. In the case of `C[C@]12CC[C@H]3[C@@H](CC=C4C[C@@H](O)CC[C@@]43C)[C@@H]1C/C(=C\c1ccncc1)[C@@H]2O`, the GI50 is reported as inactive: 18.5 µM. `CC1CC(=O)c2c(ccc3c2C(=O)c2cccc(O)c2C3=O)C1` (configuration not stated) was tested, and the GI50 was inactive: 18.6 µM. `CCOC(=O)NNC(=O)NCCNC(=O)NNC(=O)OCC` was tested, and the GI50 was inactive: > 100 µM. `CC(C)(C)OC(=O)N/C=C1\C(=O)Oc2ccccc2C1=O` was tested, and the GI50 was inactive: 35.1 µM. For `O=C1CC(C(COCc2ccccc2)OCc2ccccc2)CC(=O)N1` (configuration not stated), the GI50 was inactive: > 100 µM. For `COCCN1C2=CCCCC2=Nc2c(N)nc(N)nc21`, the GI50 was inactive: > 100 µM. For `CCOC(=O)C(=O)Nc1cc(Cl)c(Cl)cc1Cl`, the GI50 was inactive: > 100 µM. In the case of `O=Cc1ccc2c(c1)CC1(C2)Cc2ccc(C=O)cc2C1`, the GI50 is reported as inactive: 52.2 µM. In the case of `CN(C)c1nc(-c2ccccc2)c(C(=O)c2c[nH]c3ccccc23)s1`, the GI50 is reported as inactive: 39.7 µM. With `COc1ccc(C(=O)C(c2ccc(OC)cc2)C2(O)C(=O)Nc3c(Cl)cc(Cl)cc32)cc1` (configuration not stated) the GI50 was inactive: 20.6 µM. For `COc1cccc(CCn2c(N)c(C(=O)O)c3ccc([N+](=O)[O-])cc3c2=O)c1`, the GI50 was inactive: 48.1 µM. In the case of `CCOC(=O)/C(C(N)=O)=C(/O)c1cnccn1`, the GI50 is reported as inactive: > 100 µM. With `Nc1nc(CCC(=O)Nc2cccc(C(F)(F)F)c2)cc(-c2ccc3ccccc3c2)n1` the GI50 was inactive: > 100 µM. With `NNC(=O)c1ccccc1NC(=O)/C(=C/c1ccccc1O)NC(=O)c1ccccc1` the GI50 was inactive: > 100 µM. `COC1CC(C)C(OC)C2=CC(=O)C=C(NC(=O)/C(C)=C/C=C\C(C)C(OC(N)=O)/C(C)=C\C(C)C1OC)C2=O` (configuration not stated) was tested, and the GI50 was inactive: 2.37 µM. In the case of `CC12CCCCC1=C(F)C(F)(F)S2` (configuration not stated), the GI50 is reported as inactive: 98.2 µM. For `O=C(C1=C(C(=O)c2ccccc2)SC2(S1)C(C(=O)c1ccccc1)=C(C(=O)c1ccccc1)Sc1c2ssc1=O)c1ccccc1`, the GI50 was inactive: 66.2 µM. In the case of `COC1=NCc2ccccc2-c2ccccc21`, the GI50 is reported as inactive: > 100 µM. For `CCN(CC)CCNc1ccc2nc(C)n3c4ccc(O)cc4c(=O)c1c23`, the GI50 was active: 0.513 µM. With `O=C(C(=C(I)I)c1ccccc1)c1ccccc1` the GI50 was inactive: 23.6 µM. For `CCCCCCCCC1C(C)c2c([nH]c3ccccc23)C2C(=O)N(c3ccccc3)C(=O)C21` (configuration not stated), the GI50 was inactive: 17.4 µM. In the case of `C=C1[C@@H]([C@@]2(C)C=CC(=O)C(C)(C)[C@@H]2CC(=O)OC)CC[C@@]2(C)[C@H](c3ccoc3)OC(=O)[C@H]3O[C@]132` [ANDIROBIN], the GI50 is reported as inactive: > 100 µM. For `CCOC(=O)c1ccc(/C(C)=N/NC(N)=S)cc1`, the GI50 was inactive: > 100 µM. For `COc1ccc2c(c1)OC1c3ccccc3OCC21` (configuration not stated), the GI50 was inactive: > 100 µM. In the case of `CCCCOP(=O)(OCCCC)/C(C#N)=C/c1ccc(C)o1`, the GI50 is reported as inactive: 56 µM. With `CC/C(Cl)=N\OC(=O)Nc1ccc(C#N)cc1` the GI50 was inactive: 17.4 µM. In the case of `CC(C)OC(=O)[C@@H](O)[C@H](CO)C1=CC([Si](C)(C)c2ccccc2)=CON1`, the GI50 is reported as inactive: > 100 µM. In the case of `O=C1c2ccsc2C(=O)c2sc(CO)cc21`, the GI50 is reported as inactive: 2.17 µM. `NNC(=O)N/N=C(/CC1(O)C(=O)Nc2ccc(Br)cc21)c1ccccc1` (configuration not stated) was tested, and the GI50 was inactive: 33.6 µM. With `CN(C)CCNC1=Nc2ccccc2C(=O)N2CSCC12` (configuration not stated) the GI50 was inactive: > 100 µM. In the case of `CCOC(=O)N/N=C(\CC)NO`, the GI50 is reported as inactive: > 100 µM. For `CCOC(=O)C1S/C(=N\c2ccc(OC)c(OC)c2)N=C1C` (configuration not stated), the GI50 was inactive: 38.5 µM.
